Where a name gives a salt, the structure may show the parent alone. Some of the results follow. The data scatter; read single values as rough.
Assays:
Assay in all cases: ALDHbr (CSC) cell proportion score relative to DMSO vehicle (ratio to DMSO); breast (SUM159) / gastric (MKN45) / pancreatic (PANC1) / colon cancer lines; ALDHbr cells have high ALDH activity and are rich in cancer stem cells (CSC); higher = more CSC (ALDHbr) cells remaining
Conditions in all cases: 10 µM; 72 h
MKN45 = tested on: MKN45
PANC1 = tested on: PANC1
SUM159 = tested on: SUM159
T84 = tested on: T84
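Note: High-content imaging of ALDEFLUOR-stained cells with Hoechst-labelled nuclei in 384-well plates, triplicate wells, scored as Z-score against 0.1% DMSO vehicle, negative meaning fewer ALDHbr cells.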

CC(N/C(=N\C#N)Nc1ccncc1)C(C)(C)C (stereo not given) [Pinacidil]
ALDHbr (MKN45): 0.927 | ALDHbr (PANC1): 0.745 | ALDHbr (SUM159): 1.27 | ALDHbr (T84): 1.09

CC[C@H](c1ccc(O)cc1)[C@@H](CC)c1ccc(O)cc1 [Hexestrol]
ALDHbr (MKN45): 0.93 | ALDHbr (PANC1): 0.872 | ALDHbr (SUM159): 0.773 | ALDHbr (T84): 0.898

CN(CCOc1ccc(NS(C)(=O)=O)cc1)CCc1ccc(NS(C)(=O)=O)cc1 [Dofetilide]
ALDHbr (MKN45): 1.02 | ALDHbr (PANC1): 0.927 | ALDHbr (SUM159): 0.867 | ALDHbr (T84): 1.1

S=c1[nH]cnc2nc[nH]c12 [Mercaptopurine]
ALDHbr (MKN45): 0.452 | ALDHbr (PANC1): 0.907 | ALDHbr (SUM159): 0.898 | ALDHbr (T84): 0.549

Nc1nc2[nH]cc(CCc3ccc(C(=O)N[C@@H](CCC(=O)O)C(=O)O)cc3)c2c(=O)[nH]1 [Pemetrexed disodium]
ALDHbr (MKN45): 0.245 | ALDHbr (PANC1): 1.3 | ALDHbr (SUM159): 0.954 | ALDHbr (T84): 0.408

CC(=O)S[C@@H]1CC2=CC(=O)CC[C@]2(C)[C@H]2CC[C@@]3(C)[C@@H](CC[C@@]34CCC(=O)O4)[C@H]12 [Spironolactone]
ALDHbr (MKN45): 0.739 | ALDHbr (PANC1): 0.824 | ALDHbr (SUM159): 0.742 | ALDHbr (T84): 1.08

O=C(O)c1ccccc1Nc1cccc(C(F)(F)F)c1 [Flufenamic acid]
ALDHbr (MKN45): 1.21 | ALDHbr (PANC1): 1.05 | ALDHbr (SUM159): 0.871 | ALDHbr (T84): 0.955

CCc1c(C)[nH]c2c1C(=O)C(CN1CCOCC1)CC2 (stereo not given) [Molindone hydrochloride]
ALDHbr (MKN45): 0.994 | ALDHbr (PANC1): 0.919 | ALDHbr (SUM159): 0.909 | ALDHbr (T84): 1.05

CC(C)(C)NCC(O)c1cc(O)cc(O)c1 (stereo not given) [Terbutaline hemisulfate]
ALDHbr (MKN45): 1.08 | ALDHbr (PANC1): 0.741 | ALDHbr (SUM159): 2.79 | ALDHbr (T84): 0.917

CCN(CC)CCNC(=O)c1cc(S(C)(=O)=O)ccc1OC [Tiapride hydrochloride]
ALDHbr (MKN45): 0.951 | ALDHbr (PANC1): 0.905 | ALDHbr (SUM159): 0.953 | ALDHbr (T84): 0.96

CC(C)(C)NC(=O)[C@@H]1CN(Cc2cccnc2)CCN1C[C@@H](O)C[C@@H](Cc1ccccc1)C(=O)N[C@H]1c2ccccc2C[C@H]1O [Indinavir sulfate]
ALDHbr (MKN45): 0.861 | ALDHbr (PANC1): 0.799 | ALDHbr (SUM159): 1.01 | ALDHbr (T84): 0.825

O=C(OCCOCCO)c1ccccc1Nc1cccc(C(F)(F)F)c1 [Etofenamate]
ALDHbr (MKN45): 0.701 | ALDHbr (PANC1): 0.804 | ALDHbr (SUM159): 1.1 | ALDHbr (T84): 0.909

Nc1ccn([C@H]2CC[C@@H](CO)O2)c(=O)n1 [Zalcitabine]
ALDHbr (MKN45): 1.28 | ALDHbr (PANC1): 0.937 | ALDHbr (SUM159): 1.7 | ALDHbr (T84): 1.1

CC1CS(=O)(=O)CCN1/N=C/c1ccc([N+](=O)[O-])o1 (stereo not given) [Nifurtimox]
ALDHbr (MKN45): 0.587 | ALDHbr (PANC1): 1.04 | ALDHbr (SUM159): 0.539 | ALDHbr (T84): 0.721

C=CCSCC1Nc2cc(Cl)c(S(N)(=O)=O)cc2S(=O)(=O)N1 (stereo not given) [Althiazide]
ALDHbr (MKN45): 1.1 | ALDHbr (PANC1): 0.696 | ALDHbr (SUM159): 1.19 | ALDHbr (T84): 1.02

COc1ccc2cc([C@@H](C)C(=O)O)ccc2c1 [(R) -Naproxen sodium salt]
ALDHbr (MKN45): 1.17 | ALDHbr (PANC1): 1.02 | ALDHbr (SUM159): 1.11 | ALDHbr (T84): 0.999

NC12CC3CC(CC(C3)C1)C2 [Adamantamine fumarate]
ALDHbr (MKN45): 1.15 | ALDHbr (PANC1): 0.893 | ALDHbr (SUM159): 0.704 | ALDHbr (T84): 1.07

CC(C(=O)O)c1ccc2c(c1)[nH]c1ccc(Cl)cc12 (stereo not given) [Carprofen]
ALDHbr (MKN45): 1.2 | ALDHbr (PANC1): 0.939 | ALDHbr (SUM159): 0.834 | ALDHbr (T84): 0.958

NC[C@@H]1O[C@H](O[C@H]2[C@@H](O)[C@H](O[C@@H]3[C@@H](O)[C@H](N)C[C@H](N)[C@H]3O[C@H]3O[C@H](CO)[C@@H](O)[C@H](O)[C@H]3N)O[C@@H]2CO)[C@H](N)[C@@H](O)[C@@H]1O [Paromomycin sulfate]
ALDHbr (MKN45): 1.12 | ALDHbr (PANC1): 0.848 | ALDHbr (SUM159): 1.11 | ALDHbr (T84): 0.994

COc1c2occc2c(OC)c2c(=O)cc(C)oc12 [Khellin]
ALDHbr (MKN45): 1.07 | ALDHbr (PANC1): 0.871 | ALDHbr (SUM159): 1.28 | ALDHbr (T84): 0.944

CCN(CC)CCOC(=O)C1(C2CCCCC2)CCCCC1 [Dicyclomine hydrochloride]
ALDHbr (MKN45): 0.948 | ALDHbr (PANC1): 0.845 | ALDHbr (SUM159): 1.33 | ALDHbr (T84): 1.13

CC(=O)OCC(=O)[C@@]12OC(C)(C)O[C@@H]1C[C@H]1[C@@H]3C[C@H](F)C4=CC(=O)C=C[C@]4(C)[C@@]3(F)[C@@H](O)C[C@@]12C [Fluocinonide]
ALDHbr (MKN45): 0.943 | ALDHbr (PANC1): 0.686 | ALDHbr (SUM159): 1.32 | ALDHbr (T84): 0.922

COc1cc(C)c(/C=C/C(C)=C/C=C/C(C)=C/C(=O)O)c(C)c1C [Acitretin]
ALDHbr (MKN45): 1.11 | ALDHbr (PANC1): 2.08 | ALDHbr (SUM159): 0.0487 | ALDHbr (T84): 0.823

CCC[C@@H]1C[C@@H](C(=O)N[C@@H]([C@H]2O[C@H](SC)[C@H](O)[C@@H](O)[C@H]2O)[C@@H](C)O)N(C)C1 [Lincomycin hydrochloride]
ALDHbr (MKN45): 1.03 | ALDHbr (PANC1): 0.503 | ALDHbr (SUM159): 1.08 | ALDHbr (T84): 0.934

CCC[C@H](N[C@@H](C)C(=O)N1[C@H](C(=O)O)C[C@@H]2CCCC[C@@H]21)C(=O)OCC [Perindopril]
ALDHbr (MKN45): 1.17 | ALDHbr (PANC1): 1.11 | ALDHbr (SUM159): 1.08 | ALDHbr (T84): 1.18
